Measurements published in publication PMC9911399, “Two distinct binding modes provide the RNA-binding protein RbFox with extraordinary sequence specificity”.
Numbering of substitutions follows the chain as printed; changes in the protein carry UniProt numbers. The list shows a part of the results.

T1: RBFOX1 RRM RbFoxmut (Fox-RRM*) (Homo sapiens, UniProt Q9NWB1 109-208, R118D;E147R;N151S;E152T)
T1 sequence: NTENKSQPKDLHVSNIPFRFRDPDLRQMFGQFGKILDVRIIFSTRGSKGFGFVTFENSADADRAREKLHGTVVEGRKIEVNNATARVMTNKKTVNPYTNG

B1: AAUUGAA (DNA:RNA)
RNA: GGGAGACCGGAAUUCAGAUUGUCCAAUUGAAUUAAAUCCCGUCGUAGCCACCA
DNA 1: CAATCTGAATTCCGGTCTCCC
DNA 2: TGGTGGCTACGACGGGATT
B2: GGUAAGU (DNA:RNA)
RNA: B1 RNA with A25G, A26G, U28A, G29A, A30G, A31U
DNA 1: CAATCTGAATTCCGGTCTCCC
DNA 2: TGGTGGCTACGACGGGATT
B3: GAUGACC (DNA:RNA)
RNA: B1 RNA with A25G, U28G, G29A, A30C, A31C
DNA 1: CAATCTGAATTCCGGTCTCCC
DNA 2: TGGTGGCTACGACGGGATT
B4: GAACUAC (DNA:RNA)
RNA: B1 RNA with A25G, U27A, U28C, G29U, A31C
DNA 1: CAATCTGAATTCCGGTCTCCC
DNA 2: TGGTGGCTACGACGGGATT
B5: UUUAAAA (DNA:RNA)
RNA: B1 RNA with A25U, A26U, U28A, G29A
DNA 1: CAATCTGAATTCCGGTCTCCC
DNA 2: TGGTGGCTACGACGGGATT
B6: CUUCAAC (DNA:RNA)
RNA: B1 RNA with A25C, A26U, U28C, G29A, A31C
DNA 1: CAATCTGAATTCCGGTCTCCC
DNA 2: TGGTGGCTACGACGGGATT
B7: GUAAACC (DNA:RNA)
RNA: GGGAGACCGGAAUUCAGAUUGUCCGUAAACCUUAAAUCCCGUCGUAGCCACCA
DNA 1: CAATCTGAATTCCGGTCTCCC
DNA 2: TGGTGGCTACGACGGGATT
B8: GCUGAAG (DNA:RNA)
RNA: B1 RNA with A25G, A26C, U28G, G29A, A31G
DNA 1: CAATCTGAATTCCGGTCTCCC
DNA 2: TGGTGGCTACGACGGGATT
B9: CUUGGGC (DNA:RNA)
RNA: B1 RNA with A25C, A26U, U28G, A30G, A31C
DNA 1: CAATCTGAATTCCGGTCTCCC
DNA 2: TGGTGGCTACGACGGGATT
B10: UCAAGUU (DNA:RNA)
RNA: B7 RNA with G25U, U26C, A29G, C30U, C31U
DNA 1: CAATCTGAATTCCGGTCTCCC
DNA 2: TGGTGGCTACGACGGGATT
B11: CUAGGCU (DNA:RNA)
RNA: B7 RNA with G25C, A28G, A29G, C31U
DNA 1: CAATCTGAATTCCGGTCTCCC
DNA 2: TGGTGGCTACGACGGGATT
B12: GCUGCAC (DNA:RNA)
RNA: B1 RNA with A25G, A26C, U28G, G29C, A31C
DNA 1: CAATCTGAATTCCGGTCTCCC
DNA 2: TGGTGGCTACGACGGGATT
B13: UUGAUAG (DNA:RNA)
RNA: B7 RNA with G25U, A27G, A29U, C30A, C31G
DNA 1: CAATCTGAATTCCGGTCTCCC
DNA 2: TGGTGGCTACGACGGGATT
B14: CUUCCAG (DNA:RNA)
RNA: B1 RNA with A25C, A26U, U28C, G29C, A31G
DNA 1: CAATCTGAATTCCGGTCTCCC
DNA 2: TGGTGGCTACGACGGGATT
B15: GUAAGGG (DNA:RNA)
RNA: B7 RNA with A29G, C30G, C31G
DNA 1: CAATCTGAATTCCGGTCTCCC
DNA 2: TGGTGGCTACGACGGGATT
B16: CUAUAUG (DNA:RNA)
RNA: B7 RNA with G25C, A28U, C30U, C31G
DNA 1: CAATCTGAATTCCGGTCTCCC
DNA 2: TGGTGGCTACGACGGGATT
B17: UACAACU (DNA:RNA)
RNA: B7 RNA with G25U, U26A, A27C, C31U
DNA 1: CAATCTGAATTCCGGTCTCCC
DNA 2: TGGTGGCTACGACGGGATT
B18: CUGAGAC (DNA:RNA)
RNA: B7 RNA with G25C, A27G, A29G, C30A
DNA 1: CAATCTGAATTCCGGTCTCCC
DNA 2: TGGTGGCTACGACGGGATT
B19: ACUGUAA (DNA:RNA)
RNA: B1 RNA with A26C, U28G, G29U
DNA 1: CAATCTGAATTCCGGTCTCCC
DNA 2: TGGTGGCTACGACGGGATT
B20: CCCGGGU (DNA:RNA)
RNA: B1 RNA with A25C, A26C, U27C, U28G, A30G, A31U
DNA 1: CAATCTGAATTCCGGTCTCCC
DNA 2: TGGTGGCTACGACGGGATT
B21: AAUCUGA (DNA:RNA)
RNA: B1 RNA with U28C, G29U, A30G
DNA 1: CAATCTGAATTCCGGTCTCCC
DNA 2: TGGTGGCTACGACGGGATT
B22: CGAUCUA (DNA:RNA)
RNA: B1 RNA with A25C, A26G, U27A, G29C, A30U
DNA 1: CAATCTGAATTCCGGTCTCCC
DNA 2: TGGTGGCTACGACGGGATT
B23: GUAGCUC (DNA:RNA)
RNA: B7 RNA with A28G, A29C, C30U
DNA 1: CAATCTGAATTCCGGTCTCCC
DNA 2: TGGTGGCTACGACGGGATT
B24: UUUACGA (DNA:RNA)
RNA: B1 RNA with A25U, A26U, U28A, G29C, A30G
DNA 1: CAATCTGAATTCCGGTCTCCC
DNA 2: TGGTGGCTACGACGGGATT
B25: GCUCACC (DNA:RNA)
RNA: B7 RNA with U26C, A27U, A28C
DNA 1: CAATCTGAATTCCGGTCTCCC
DNA 2: TGGTGGCTACGACGGGATT
B26: AUGCCCG (DNA:RNA)
RNA: B7 RNA with G25A, A27G, A28C, A29C, C31G
DNA 1: CAATCTGAATTCCGGTCTCCC
DNA 2: TGGTGGCTACGACGGGATT
B27: GAUAGAG (DNA:RNA)
RNA: B1 RNA with A25G, U28A, A31G
DNA 1: CAATCTGAATTCCGGTCTCCC
DNA 2: TGGTGGCTACGACGGGATT
B28: UCGUAAA (DNA:RNA)
RNA: B1 RNA with A25U, A26C, U27G, G29A
DNA 1: CAATCTGAATTCCGGTCTCCC
DNA 2: TGGTGGCTACGACGGGATT
B29: ACUCAUU (DNA:RNA)
RNA: B1 RNA with A26C, U28C, G29A, A30U, A31U
DNA 1: CAATCTGAATTCCGGTCTCCC
DNA 2: TGGTGGCTACGACGGGATT
B30: CUCCUAC (DNA:RNA)
RNA: B7 RNA with G25C, A27C, A28C, A29U, C30A
DNA 1: CAATCTGAATTCCGGTCTCCC
DNA 2: TGGTGGCTACGACGGGATT
B31: CCACAAA (DNA:RNA)
RNA: B1 RNA with A25C, A26C, U27A, U28C, G29A
DNA 1: CAATCTGAATTCCGGTCTCCC
DNA 2: TGGTGGCTACGACGGGATT

target: T1, RBFOX1 RRM RbFoxmut (Fox-RRM*); assay: EMSA; HiTS-Eq, 1 nM pool, 10 min; buffer printed only for the single-RNA assays: 10 mM Tris pH 7.5, 150 mM NaCl, 3.4 mM EDTA, 0.001% NP-40, 30 C; conditions: tags: His6 N-terminal (pET28a); label: 5' 32P
Outline: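 Purified RbFox RRM, wild type or mutant, was incubated for 10 min in 50 µL with 1 nM of a 5′-radiolabelled RNA pool carrying 7 randomized nucleotides, whose flanks were annealed to DNA oligonucleotides, over a series of increasing protein concentrations. Unbound RNA was resolved on 8% native PAGE, cut out, reverse-transcribed, barcoded by PCR and sequenced on an Illumina HiSeq 2500. Relative association constants were derived from changes in read counts for each RNA species versus the control reaction and normalised to the cognate motif.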

Binder | binding signal
B1 | 0.1 KA relative to UGCAUGU
B2 | 0.0835 KA relative to UGCAUGU
B3 | 0.0621 KA relative to UGCAUGU
B4 | 0.0677 KA relative to UGCAUGU
B5 | 0.0929 KA relative to UGCAUGU
B6 | 0.0743 KA relative to UGCAUGU
B7 | 0.0731 KA relative to UGCAUGU
B8 | 0.0834 KA relative to UGCAUGU
B9 | 0.0946 KA relative to UGCAUGU
B10 | 0.0934 KA relative to UGCAUGU
B11 | 0.0903 KA relative to UGCAUGU
B12 | 0.111 KA relative to UGCAUGU
B13 | 0.0947 KA relative to UGCAUGU
B14 | 0.0967 KA relative to UGCAUGU
B15 | 0.0569 KA relative to UGCAUGU
B16 | 0.132 KA relative to UGCAUGU

Binder | binding signal
B17 | 0.0592 KA relative to UGCAUGU
B18 | 0.0947 KA relative to UGCAUGU
B19 | 0.132 KA relative to UGCAUGU
B20 | 0.0885 KA relative to UGCAUGU
B21 | 0.04 KA relative to UGCAUGU
B22 | 0.0692 KA relative to UGCAUGU
B23 | 0.071 KA relative to UGCAUGU
B24 | 0.0783 KA relative to UGCAUGU
B25 | 0.0793 KA relative to UGCAUGU
B26 | 0.113 KA relative to UGCAUGU
B27 | 0.119 KA relative to UGCAUGU
B28 | 0.142 KA relative to UGCAUGU
B29 | 0.0769 KA relative to UGCAUGU
B30 | 0.106 KA relative to UGCAUGU
B31 | 0.0638 KA relative to UGCAUGU
